# Article PMC9911399, “Two distinct binding modes provide the RNA-binding protein RbFox with extraordinary sequence specificity”
# Positions count from the first letter of the chain named. The list shows a part of the results.
# T1: RBFOX1 RRM (Homo sapiens, UniProt Q9NWB1 109-208)
# T1 sequence: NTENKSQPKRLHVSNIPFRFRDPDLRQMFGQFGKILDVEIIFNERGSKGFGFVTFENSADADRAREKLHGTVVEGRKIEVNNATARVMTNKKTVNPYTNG
# B1: CGGCUCC (DNA:RNA)
# RNA: GGGAGACCGGAAUUCAGAUUGUCCCGGCUCCUUAAAUCCCGUCGUAGCCACCA
# DNA 1: CAATCTGAATTCCGGTCTCCC
# DNA 2: TGGTGGCTACGACGGGATT
# B2: AAGAUUA (DNA:RNA)
# RNA: B1 RNA with C25A, G26A, C28A, C30U, C31A
# DNA 1: CAATCTGAATTCCGGTCTCCC
# DNA 2: TGGTGGCTACGACGGGATT
# B3: CAUCAUG (DNA:RNA)
# RNA: B1 RNA with G26A, G27U, U29A, C30U, C31G
# DNA 1: CAATCTGAATTCCGGTCTCCC
# DNA 2: TGGTGGCTACGACGGGATT
# B4: CUGCUCC (DNA:RNA)
# RNA: B1 RNA with G26U
# DNA 1: CAATCTGAATTCCGGTCTCCC
# DNA 2: TGGTGGCTACGACGGGATT
# B5: CGAUCAA (DNA:RNA)
# RNA: B1 RNA with G27A, C28U, U29C, C30A, C31A
# DNA 1: CAATCTGAATTCCGGTCTCCC
# DNA 2: TGGTGGCTACGACGGGATT
# B6: GCCGGCG (DNA:RNA)
# RNA: B1 RNA with C25G, G26C, G27C, C28G, U29G, C31G
# DNA 1: CAATCTGAATTCCGGTCTCCC
# DNA 2: TGGTGGCTACGACGGGATT
# B7: CGGACCG (DNA:RNA)
# RNA: B1 RNA with C28A, U29C, C31G
# DNA 1: CAATCTGAATTCCGGTCTCCC
# DNA 2: TGGTGGCTACGACGGGATT
# B8: GCGAGAG (DNA:RNA)
# RNA: B1 RNA with C25G, G26C, C28A, U29G, C30A, C31G
# DNA 1: CAATCTGAATTCCGGTCTCCC
# DNA 2: TGGTGGCTACGACGGGATT
# B9: UCUCUAA (DNA:RNA)
# RNA: B1 RNA with C25U, G26C, G27U, C30A, C31A
# DNA 1: CAATCTGAATTCCGGTCTCCC
# DNA 2: TGGTGGCTACGACGGGATT
# B10: GGUUGGA (DNA:RNA)
# RNA: B1 RNA with C25G, G27U, C28U, U29G, C30G, C31A
# DNA 1: CAATCTGAATTCCGGTCTCCC
# DNA 2: TGGTGGCTACGACGGGATT
# B11: CCAAAAC (DNA:RNA)
# RNA: B1 RNA with G26C, G27A, C28A, U29A, C30A
# DNA 1: CAATCTGAATTCCGGTCTCCC
# DNA 2: TGGTGGCTACGACGGGATT
# B12: UGCUGCA (DNA:RNA)
# RNA: B1 RNA with C25U, G27C, C28U, U29G, C31A
# DNA 1: CAATCTGAATTCCGGTCTCCC
# DNA 2: TGGTGGCTACGACGGGATT
# B13: AGCAUAU (DNA:RNA)
# RNA: B1 RNA with C25A, G27C, C28A, C30A, C31U
# DNA 1: CAATCTGAATTCCGGTCTCCC
# DNA 2: TGGTGGCTACGACGGGATT
# B14: CGUGCUC (DNA:RNA)
# RNA: B1 RNA with G27U, C28G, U29C, C30U
# DNA 1: CAATCTGAATTCCGGTCTCCC
# DNA 2: TGGTGGCTACGACGGGATT
# B15: ACGUCGC (DNA:RNA)
# RNA: B1 RNA with C25A, G26C, C28U, U29C, C30G
# DNA 1: CAATCTGAATTCCGGTCTCCC
# DNA 2: TGGTGGCTACGACGGGATT
# B16: AGAGAGG (DNA:RNA)
# RNA: B1 RNA with C25A, G27A, C28G, U29A, C30G, C31G
# DNA 1: CAATCTGAATTCCGGTCTCCC
# DNA 2: TGGTGGCTACGACGGGATT
# B17: GAAAGAC (DNA:RNA)
# RNA: B1 RNA with C25G, G26A, G27A, C28A, U29G, C30A
# DNA 1: CAATCTGAATTCCGGTCTCCC
# DNA 2: TGGTGGCTACGACGGGATT
# B18: UGACGAC (DNA:RNA)
# RNA: B1 RNA with C25U, G27A, U29G, C30A
# DNA 1: CAATCTGAATTCCGGTCTCCC
# DNA 2: TGGTGGCTACGACGGGATT
# B19: GUGCCUG (DNA:RNA)
# RNA: B1 RNA with C25G, G26U, U29C, C30U, C31G
# DNA 1: CAATCTGAATTCCGGTCTCCC
# DNA 2: TGGTGGCTACGACGGGATT
# B20: CCGUGCG (DNA:RNA)
# RNA: B1 RNA with G26C, C28U, U29G, C31G
# DNA 1: CAATCTGAATTCCGGTCTCCC
# DNA 2: TGGTGGCTACGACGGGATT
# Molecular target: T1, RBFOX1 RRM
# Assay: EMSA; HiTS-Eq, 1 nM pool, 10 min; buffer printed only for the single-RNA assays: 10 mM Tris pH 7.5, 150 mM NaCl, 3.4 mM EDTA, 0.001% NP-40, 30 C
# Settings: tags: His6 N-terminal (pET28a); label: 5' 32P
# Outline: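 These values rest on relative association constants, computed from read-count changes of each RNA species versus the control reaction and normalised to the cognate motif. Reads came from free RNA recovered by 8% native PAGE after purified RbFox RRM (wild type or mutant) at increasing concentrations was equilibrated for 10 min in 50 µL with 1 nM of a 5′-radiolabelled pool with 7 randomized nucleotides and DNA-annealed flanks.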
row,Binder,binding signal
1,B1,0.0203 KA relative to UGCAUGU
2,B2,0.00246 KA relative to UGCAUGU
3,B3,0.00476 KA relative to UGCAUGU
4,B4,0.0136 KA relative to UGCAUGU
5,B5,0.00365 KA relative to UGCAUGU
6,B6,0.0178 KA relative to UGCAUGU
7,B7,0.0268 KA relative to UGCAUGU
8,B8,0.0145 KA relative to UGCAUGU
9,B9,0.00421 KA relative to UGCAUGU
10,B10,0.00246 KA relative to UGCAUGU
11,B11,0.00112 KA relative to UGCAUGU
12,B12,0.0343 KA relative to UGCAUGU
13,B13,0.00485 KA relative to UGCAUGU
14,B14,0.0133 KA relative to UGCAUGU
15,B15,0.00978 KA relative to UGCAUGU
16,B16,0.0144 KA relative to UGCAUGU
17,B17,0.00724 KA relative to UGCAUGU
18,B18,0.0138 KA relative to UGCAUGU
19,B19,0.0397 KA relative to UGCAUGU
20,B20,0.0124 KA relative to UGCAUGU
